Reference: PubChem BioAssay AID602179 (National Center for Advancing Translational Sciences (NCATS), 2012)
Hit rate of the full screen: of about 390,000 compounds, about 360 (0.092%) were called active. The shares of active, inactive and inconclusive entries below differ from those in the screen. Calls come from the whole dose curve; as a rule, active = well fitted inhibition curve with a large enough effect; inconclusive = small, poorly fitted or top-dose-only effect; inactive = no such curve, though single readings can be large or run the other way. Potencies beside an inconclusive call are fits to weak or partial responses and may not hold up.

molecular target: Isocitrate dehydrogenase [NADP] cytoplasmic (Homo sapiens) (UniProt O75874); experiment: qHTS for Inhibitors of mutant isocitrate dehydrogenase 1 (IDH1): qHTS; settings: IDH1-R132H enzyme, NADPH consumption, diaphorase/resazurin fluorescence; series mostly up to 76.6 µM; activity change, negative = inhibition: at the top concentration; note: nearly all actives have a fitted effect of over 65% in size
Source text: Unbiased genomic sequencing for 22 glioma genomes found recurrent mutation of isocitrate dehydrogenase 1 (IDH1) on chromosome 2q33-a gene encoding the cytosolic isoform of IIDH1associated with the tricarboxylic acid cycle (TCA) that catalyzes the oxidative decarboxylation of isocitrate, yielding alpha-ketoglutarate and CO2 via NADP+ to NADPH conversion. Subsequent studies confirmed the recurrent IDH mutations in up to 70% of secondary gliomas and in 10% of AML cases. […] This in effect defines IDH1 as an oncogene, and provides an extraordinary opportunity to discover chemical probes against mutant IDH1 that may translate into much needed new therapies for glioma and AML patients. […] NIH Chemical Genomics Center [NCGC] NIH Molecular Libraries Probe Centers Network [MLPCN] MLPCN Grant: DA032129 Assay Submitter (PI): Lenny Dang, Agios Pharmaceuticals
IDH1-R132H (0.5 ug/mL) was dispensed into black, solid-bottom 1536-well plates at 3 uL/well in 20 mM Tris-HCl (pH 7.5), 150 mM NaCl, 10 mM MgCl2, 4 mM beta-ME, and 0.05% protease-free BSA. Then, 23 nL of compounds or DMSO were delivered to each well using a pin tool. A pre-read was run on the Viewlux to identify fluorescent compounds (540 nm excitation filter, 598 nm emission filter, bodipy mirror and 2 second exposure). After 30 minutes of incubation with compound, 3 uL of substrate mix were dispensed (0.016 mM NADPH, 2 mM alpha-KG, 20 mM Tris-HCl (pH 7.5), 150 mM NaCl, 10 mM MgCl2, and 0.05% protease-free BSA). Plates were spun for 1 min at 1000xg and incubated at room temperature for 80 min. Then 1.5 uL of each detection reagent component for the coupling system were added (0.12 mg/mL diaphorase and 0.072 mM resazurin, each in 20 mM Tris-HCl (pH 7.5), 150 mM NaCl, 10 mM MgCl2, and 0.05% protease-free BSA ) The protein, substrate and two detection components were maintained at 4 °C throughout the screen. Additionally, the substrate and resazurin reagents were protected from light. The plates were measured on an Envision plate reader for fluorescence signal using a 540 nm excitation filter and 590 nm emission filter with 10 flashes. 1x and 0x (no-enzyme) IDH1-R132H enzyme control were used to normalize %Activity of identified inhibitors; 0x enzyme values corresponded to 100% Activity (full inhibition), while 1x IDH1-R132H enzyme values were used to normalize 0%Activity (no inhibition). Concentration-response curves were fitted to the signals arising from the resulting fluorescence. The concentration-effect curves were then classified based on curve quality (r2), response magnitude and degree of measured activity, and compounds were subsequently categorized based on their curve class. […] Keywords: isocitrate dehydrogenase, IDH1, IDH1-R132H, MLSMR, MLPCN, NIH Roadmap, qHTS, NCGC
% is set by controls: 0 for no effect and ±100 for the full control effect; potency is the fitted concentration of half-maximal effect; tags give direction and shape of the fitted curve.

Row | SMILES | activity change, negative = inhibition | Potency
1 | Oc1ccccc1CN1CCCN(Cc2ccccc2O)C1 | inactive: -12.1% | –
2 | COc1cc(OC)cc(C(=O)N[C@H](C(=O)OCC(=O)c2ccc(C)c([N+](=O)[O-])c2)C(C)C)c1 | inactive: 4.18% | –
3 | CC(C)NC(=O)Cn1nnc(-c2ccc(Cl)cc2)n1 | inactive: 4.24% | –
4 | CC(C)C1Cc2c(sc3c2c(=O)n(Cc2ccccc2)c2nncn32)CO1 (configuration not stated) | inactive: -0.0103% | –
5 | CCN(CC)c1ccc(-c2nn3c(-c4ccccc4OC)nnc3s2)cc1 | – | inconclusive: 58.5 µM [inhibitor, single point]
6 | OCCOCCNc1ncnc2c1cnn2-c1ccc(Cl)cc1 | inactive: 8.79% | –
7 | COc1ccccc1C(=O)NNC(=S)NC(=O)c1cc(OC)c(OC)c(OC)c1 | inactive: 7.77% | –
8 | O=C(O)C1=CC[C@@H](c2ccc(Cl)cc2)N(S(=O)(=O)c2ccc(Cl)cc2)[C@H]1c1ccc(Br)cc1 | – | inconclusive: 50.1 µM [inhibitor, single point]
9 | O=C(O)C(c1ccccc1)N1C(=O)/C(=C\c2ccc(-c3ccc(Br)cc3)o2)SC1=S (configuration not stated) | inactive: 2.25% | –
10 | Cc1oc(-c2cccc(Cl)c2)nc1CN1CCCC(C(=O)NCc2ccc(F)cc2)C1 (configuration not stated) | inactive: 0% | –
11 | CCCn1c(SCC(=O)Nc2cc(C)on2)n[nH]c1=O | inactive: -3.21% | –
12 | COc1cc2c(c3oc(-c4ccccc4)cc(=O)c13)C=CC(C)(C)O2 | – | active: 39.8 µM
13 | FC(F)Oc1ccc(-c2csc(NNC3=NCCCCC3)n2)cc1 | – | inconclusive: 44.7 µM [inhibitor, partial curve, poor fit]
14 | OC(CNCCc1ccc(Cl)cc1)COc1cc(Cl)ccc1Cl (configuration not stated) | inactive: -8.71% | –
15 | Cc1ccc(-c2nc3sc(C(N)=O)c(N)c3c3c2CCCC3)cc1 | – | inconclusive: 58.5 µM [inhibitor, single point]
16 | CC(=O)N1c2ccc(S(=O)(=O)N3CCC(C(=O)Nc4ccccn4)CC3)cc2CC1C (configuration not stated) | inactive: -5.36% | –
17 | CC(C)=CCc1c(O)cc(O)c2c(=O)c3c(CC=C(C)C)c(O)ccc3oc12 | – | active: 44.7 µM
18 | COc1ccc(Nc2nc(C)nc3c2nnn3Cc2ccccc2)cc1OC | inactive: 1.82% | –
19 | COc1nc(OC)nc(N2CCC(C(=O)NC3CC3)CC2)n1 | inactive: 7.64% | –
20 | CC1CC(C)(C)CC2(C1)NC(=O)N(CC(=O)N1CCN(S(=O)(=O)c3cccc(Cl)c3Cl)CC1)C2=O (configuration not stated) | – | inconclusive: 52.1 µM [inhibitor, partial curve, poor fit]
21 | COc1cc(/C=C2/SC(=S)N(Cc3ccccc3)C2=O)cc(OC)c1O | – | inconclusive: 8.26 µM [inhibitor, partial curve, poor fit]
22 | Cc1ccc(CNC(=O)Nc2cn(CC(C)C)c(=O)c3ccccc23)cc1 | – | inconclusive: 50.1 µM [inhibitor, single point]
